# Experimental data from the supplement of paper PMC8728848.
# This is one part of the list.
# Experiments:
# Test in all cases: glycan array binding signal (z-score within array); higher = stronger binding
# Settings in all cases: glycan notation: IUPAC condensed, linker removed
# [1] = target: Fuc(a1-2)[GalNAc(a1-3)]Gal(b1-3)GlcNAc(b1-6)GalNAc
# Outline: (§1)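 Columns mapping to the same glycan were averaged after glycan names were converted to IUPAC-condensed notation. The data come from 3228 arrays in the Consortium for Functional Glycomics database, limited to those with an available protein sequence. Binding is reported as a within-array Z-score averaged across arrays of one protein sequence and across linkers.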
# [2] = target: Fuc(a1-2)[GalNAc(a1-3)]Gal(b1-4)Glc
# Outline: as §1
# [3] = target: Fuc(a1-2)[GalNAc(a1-3)]Gal(b1-4)GlcNAc
# Outline: as §1
# [4] = target: Fuc(a1-2)[GalNAc(a1-3)]Gal(b1-4)GlcNAc(b1-2)Man
# Outline: as §1
# [5] = target: Fuc(a1-2)[GalNAc(a1-3)]Gal(b1-4)GlcNAc(b1-2)Man(a1-3)[Fuc(a1-2)[GalNAc(a1-3)]Gal(b1-4)GlcNAc(b1-2)Man(a1-6)]Man(b1-4)GlcNAc(b1-4)GlcNAc
# Outline: as §1
# [6] = target: Fuc(a1-2)[GalNAc(a1-3)]Gal(b1-4)GlcNAc(b1-2)Man(a1-3)[Fuc(a1-2)[GalNAc(a1-3)]Gal(b1-4)GlcNAc(b1-2)Man(a1-6)]Man(b1-4)GlcNAc(b1-4)[Fuc(a1-6)]GlcNAc
# Outline: as §1
# [7] = target: Fuc(a1-2)[GalNAc(a1-3)]Gal(b1-4)GlcNAc(b1-3)Gal(b1-4)GlcNAc
# Outline: as §1
# [8] = target: Fuc(a1-2)[GalNAc(a1-3)]Gal(b1-4)GlcNAc(b1-3)Gal(b1-4)GlcNAc(b1-3)Gal(b1-4)GlcNAc
# Outline: as §1
# [9] = target: Fuc(a1-2)[GalNAc(a1-3)]Gal(b1-4)GlcNAc(b1-3)GalNAc
# Outline: as §1
# [10] = target: Fuc(a1-2)[GalNAc(a1-3)]Gal(b1-4)GlcNAc(b1-3)[Fuc(a1-2)[GalNAc(a1-3)]Gal(b1-4)GlcNAc(b1-6)]GalNAc
# Outline: as §1
# [11] = target: Fuc(a1-2)[GalNAc(a1-3)]Gal(b1-4)GlcNAc(b1-6)GalNAc
# Outline: as §1
# [12] = target: Fuc(a1-2)[GalNAc(a1-3)]Gal(b1-4)[Fuc(a1-3)]GlcNAc
# Outline: as §1
# [13] = target: Fuc(a1-2)[GalNAc(a1-3)]Gal(b1-4)[Fuc(a1-3)]GlcNAc(b1-3)GalNAc
# Outline: as §1
# [14] = target: Fuc(a1-2)[GalNAc(a1-4)]Gal(b1-4)GlcNAc
# Outline: as §1
# [15] = target: Fuc(a1-2)[GalNAc(b1-3)]Gal
# Outline: as §1
# Fuc(a1-3)GlcNAc = target: Fuc(a1-3)GlcNAc
# Outline: as §1
# [16] = target: Fuc(a1-3)[Gal(b1-4)]Glc6S
# Outline: as §1
# [17] = target: Fuc(a1-3)[Gal(b1-4)]GlcNAc
# Outline: as §1
# [18] = target: Fuc(a1-3)[Gal(b1-4)]GlcNAc(b1-2)Man
# Outline: as §1
# [19] = target: Fuc(a1-3)[Gal(b1-4)]GlcNAc(b1-2)Man(a1-3)[Fuc(a1-3)[Gal(b1-4)]GlcNAc(b1-2)Man(a1-6)]Man(b1-4)GlcNAc(b1-4)GlcNAc
# Outline: as §1
# [20] = target: Fuc(a1-3)[Gal(b1-4)]GlcNAc(b1-2)Man(a1-3)[Fuc(a1-3)[Gal(b1-4)]GlcNAc(b1-2)Man(a1-6)]Man(b1-4)GlcNAc(b1-4)[Fuc(a1-6)]GlcNAc
# Outline: as §1
# [21] = target: Fuc(a1-3)[Gal(b1-4)]GlcNAc(b1-3)Gal(b1-3)[Fuc(a1-4)]GlcNAc
# Outline: as §1
# [22] = target: Fuc(a1-3)[Gal(b1-4)]GlcNAc(b1-3)Gal(b1-4)[Fuc(a1-3)]GlcNAc
# Outline: as §1
# [23] = target: Fuc(a1-3)[Gal(b1-4)]GlcNAc(b1-3)Gal(b1-4)[Fuc(a1-3)]GlcNAc(b1-3)Gal(b1-4)[Fuc(a1-3)]GlcNAc
# Outline: as §1
# [24] = target: Fuc(a1-3)[Gal(b1-4)]GlcNAc(b1-3)GalNAc
# Outline: as §1
# [25] = target: Fuc(a1-3)[Gal(b1-4)]GlcNAc(b1-6)GalNAc
# Outline: as §1
# [26] = target: Fuc(a1-3)[Gal(b1-4)]GlcNAc(b1-6)[Gal(b1-3)GlcNAc(b1-3)]Gal(b1-4)Glc
# Outline: as §1
# [27] = target: Fuc(a1-3)[Gal(b1-4)]GlcNAc6S
# Outline: as §1
# [28] = target: Fuc(a1-3)[Gal3S(b1-4)]Glc
# Outline: as §1
# [29] = target: Fuc(a1-3)[Gal3S(b1-4)]GlcNAc
# Outline: as §1
# [30] = target: Fuc(a1-3)[Gal3S(b1-4)]GlcNAc6S
# Outline: as §1
# [31] = target: Fuc(a1-3)[GalNAc(b1-4)]GlcNAc
# Outline: as §1
# [32] = target: Fuc(a1-3)[GalNAc(b1-4)]GlcNAc6S
# Outline: as §1
# Fuc(a1-4)GlcNAc = target: Fuc(a1-4)GlcNAc
# Outline: as §1
# Fuc(b1-3)GlcNAc = target: Fuc(b1-3)GlcNAc
# Outline: as §1
# Gal(a1-2)Gal = target: Gal(a1-2)Gal
# Outline: as §1
# Gal(a1-3)Gal = target: Gal(a1-3)Gal
# Outline: as §1
# Gal(a1-3)Gal(b1-3)GlcNAc = target: Gal(a1-3)Gal(b1-3)GlcNAc
# Outline: as §1
# [33] = target: Gal(a1-3)Gal(b1-3)GlcNAc(b1-2)Man
# Outline: as §1
# [34] = target: Gal(a1-3)Gal(b1-3)GlcNAc(b1-2)Man(a1-3)[Gal(a1-3)Gal(b1-3)GlcNAc(b1-2)Man(a1-6)]Man(b1-4)GlcNAc(b1-4)GlcNAc
# Outline: as §1
# [35] = target: Gal(a1-3)Gal(b1-3)GlcNAc(b1-3)GalNAc
# Outline: as §1
# [36] = target: Gal(a1-3)Gal(b1-3)GlcNAc(b1-6)GalNAc
# Outline: as §1
# [37] = target: Gal(a1-3)Gal(b1-3)[Fuc(a1-4)]GlcNAc(b1-2)Man(a1-3)[Gal(a1-3)Gal(b1-3)[Fuc(a1-4)]GlcNAc(b1-2)Man(a1-6)]Man(b1-4)GlcNAc(b1-4)GlcNAc
# Outline: as §1
# Gal(a1-3)Gal(b1-4)Glc = target: Gal(a1-3)Gal(b1-4)Glc
# Outline: as §1
# Gal(a1-3)Gal(b1-4)GlcNAc = target: Gal(a1-3)Gal(b1-4)GlcNAc
# Outline: as §1
binder,measurement,setting,value
Mermaid3 (Stilbonema majum) (protein) MGSSHHHHHHSSGLVPRGSHMAASGWLRSPQGTVVKLYRRSLSWSKADEFCKDVDGRLVVDRTADMHLFLIKNVLKEKKSRVWVGLRRTASHSRTWIWSDGTRQNEGDLDANLWLRDEPNDAAGEEECALFMYSPWEKAWGLNDYLCRGGCRNYQFICEKWIR,glycan array binding signal (z-score),[1],-0.726
same,glycan array binding signal (z-score),[2],-0.766
same,glycan array binding signal (z-score),[3],-0.335
same,glycan array binding signal (z-score),[4],-0.726
same,glycan array binding signal (z-score),[5],-0.51
same,glycan array binding signal (z-score),[6],0.166
same,glycan array binding signal (z-score),[7],-0.69
same,glycan array binding signal (z-score),[8],-0.255
same,glycan array binding signal (z-score),[9],-0.58
same,glycan array binding signal (z-score),[10],-0.54
same,glycan array binding signal (z-score),[11],2.24
same,glycan array binding signal (z-score),[12],0.773
same,glycan array binding signal (z-score),[13],-0.499
same,glycan array binding signal (z-score),[14],0.132
same,glycan array binding signal (z-score),[15],-0.814
same,glycan array binding signal (z-score),Fuc(a1-3)GlcNAc,-0.325
same,glycan array binding signal (z-score),[16],1.71
same,glycan array binding signal (z-score),[17],0.325
same,glycan array binding signal (z-score),[18],-0.796
same,glycan array binding signal (z-score),[19],-0.492
same,glycan array binding signal (z-score),[20],-0.113
same,glycan array binding signal (z-score),[21],-0.308
same,glycan array binding signal (z-score),[22],0.021
same,glycan array binding signal (z-score),[23],-0.463
same,glycan array binding signal (z-score),[24],0.062
same,glycan array binding signal (z-score),[25],-0.74
same,glycan array binding signal (z-score),[26],0.193
same,glycan array binding signal (z-score),[27],3.67
same,glycan array binding signal (z-score),[28],-0.589
same,glycan array binding signal (z-score),[29],-0.172
same,glycan array binding signal (z-score),[30],-0.521
same,glycan array binding signal (z-score),[31],0.811
same,glycan array binding signal (z-score),[32],-0.469
same,glycan array binding signal (z-score),Fuc(a1-4)GlcNAc,1.39
same,glycan array binding signal (z-score),Fuc(b1-3)GlcNAc,-0.119
same,glycan array binding signal (z-score),Gal(a1-2)Gal,-0.724
same,glycan array binding signal (z-score),Gal(a1-3)Gal,-0.579
same,glycan array binding signal (z-score),Gal(a1-3)Gal(b1-3)GlcNAc,-0.73
same,glycan array binding signal (z-score),[33],-0.634
same,glycan array binding signal (z-score),[34],0.163
same,glycan array binding signal (z-score),[35],-0.424
same,glycan array binding signal (z-score),[36],-0.522
same,glycan array binding signal (z-score),[37],2.19
same,glycan array binding signal (z-score),Gal(a1-3)Gal(b1-4)Glc,-0.106
same,glycan array binding signal (z-score),Gal(a1-3)Gal(b1-4)GlcNAc,-0.531
